Data taken from the supplement of paper PMC10126150.
Values marked as one replicate rest on one cluster of the flow cell; about a third of the high ones do not repeat.

Tested on: ATP
Test: switch fluorescence ratio, 500 uM ATP over buffer (Cy3 cluster intensity, sum of 5 cycles each) (fold (ratio)); higher = stronger signal-on switching upon ATP binding; sequences stand for … in TCGTCGGCAGCGTCAGATGTGTATAAGAGACAGTTTTTTTTTTTTTTTTTTTTTTTTT…TC
Conditions: aptamer strand: ATP DNA aptamer (quencher-CACCTGGGGGAGTATTGCGGAGGAAGG + anchor), 100 nM annealed; ATP concentration: 500 uM; one replicate
In short: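 Switching-strand clusters labelled with Cy3 on a modified Illumina MiSeq flow-cell were annealed to 100 nM quencher-labelled ATP aptamer, imaged in selection buffer, and re-imaged after 15 min with 500 uM ATP at 22 °C. This was done over five cycles with NaOH stripping and re-annealing in between. The fluorescence ratio is summed target-cycle over summed buffer-cycle Cy3 intensity per cluster, averaged per switch-domain sequence, excluding clusters outside 100-1000 RFU.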
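Note: ATP exposure 15 min at 22 °C before imaging.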

Sequence	switch fluorescence ratio
GGGCATGA	0.98
CGTTTGTCGA	0.94
TAATATGTCT	1.04
TTGGGGTCAA	0.964
AAGATAATT	0.991
ACGCATCTGG	1.09
TTGAAATGGC	0.982
CTGGATAATA	1.01
CTTGGGTGCA	1.05
GGATCTCGAT	0.976
ACTAAGCA	1.08
GTTTATTTGA	0.976
GTAAAAGCTT	1.03
AACTAAACGA	1.1
AGTGTCATGG	0.977
GTTTCTAGTG	0.957
TAGTTTTTT	1.01
CCTCTCCGCT	3.57
AAACCATAGA	0.997
TCTTGGAC	1
TCTCCGAGAG	1.84
CGAAGGGGGC	0.942
TTAACAGGAG	0.994
TTGGCCCTAT	1.02
ATTTTGTGAC	1.02
GTTGCGTGC	1

Sequence	switch fluorescence ratio
GAGCCGACTT	0.952
CACAGCTAGG	1.03
CAGGTTTTTA	0.962
GCCGCGACG	1.04
GATATAAGTT	1.06
GTCAGTGATT	0.985
TCGGTCTTTA	1.02
CCGTGATCGC	2.48
GCCTGTTACT	1.02
TATACACCGA	1.05
GTGGACCGGT	0.973
ATTTAGACA	1
AGAGTTTATA	1
CAGCTATTTG	1.04
GCCAGGTATG	1.12
ATCTTTATGC	1.33
GTTGGGTTCA	1.01
CTATTATT	0.994
GGTGTGAATG	0.965
CGGTGCTGTA	1.06
ACGTTGTTAG	1.03
TACCGTTGTT	0.985
AATGTTCCTT	1.04
CAGGTGGGAA	1.12
TATTTCAGTG	1.02
ACAACAAAGT	1.01

Sequence	switch fluorescence ratio
GCACCACACT	1.29
GTGTCCGGCC	0.934
CAATTTTTTA	0.996
GGGGACCGAA	1.01
GAAATTGGAA	1.02
TATTTTGGC	1.1
TTCAGTTCCT	1.04
TGGCGACGGG	1.04
TATCGGCTTG	1.02
TCCTATCCG	1.09
TCGAGTAAAT	2.1
AAATCGTATC	0.96
AGTGACATTA	1.07
GTGGTTGCCT	1.02
CATCGGTCAT	1.08
GTTGCCCGGT	1.01
AGTCTTTTCG	1.03
CCAAGGGCAG	1.05
GCAAAGGACC	1.4
AATAGCGTTG	1.01
ACGGCCTAGG	1.04
CTGTGTGTAG	1.03
GAAATGGATG	1.03
GGTCACTAGG	1.04
ACTCTCAGTA	0.948
GCGCGGATTC	1.18

Sequence	switch fluorescence ratio
TGCCGGTATT	1.03
AAGCTCTCAT	0.999
GCGCCTCCGT	2.5
TCCGTGGTCG	0.938
CCCGGATGCT	1.11
GATCACTCTG	1.05
TCTATAAGAG	0.965
AGCGGTTTAT	0.98
GACTACTCTG	1.04
AATTCACTTC	1.03
TTGTGTTCTG	0.992
TTGGGCTGTG	1.01
TCAGTAAATA	0.973
AGCAACCGGC	1.04
AAAATCTTGA	0.952
CCTTGGGCTG	1.02
TTTATAGCCC	0.99
TGCTGTTGGG	0.977
GTAATCTCCT	1.21
GAGGAGCACA	1.08
GACACTGGGT	0.994
TTGACAGGTA	1.06
ATAATCGCCT	1.01
GCCCAGACGA	1.14
TCGCTTCCAG	0.994
CCTGAGCTCG	1.01

Sequence	switch fluorescence ratio
TTACTCTTCA	1.05
TTCTCGGATC	1.01
CTGAGTTATT	1.03
AATGTGGCTG	1.01
TAGTCGGTCG	1.02
ATATAGACTC	1.05
CTGTTTCACC	1.01
CAGGGTTCTA	0.984
AGGGTAGGTT	0.919
ATCGGAGCAC	2.39
CACGACAGTC	1.07
TACGAAAGAG	1.14
ACCTTTGCCA	1.02
GAAGGGAACA	0.972
TCCCTCCGGG	1.04
TTGAGATCTA	0.958
ATGCGGGGAG	1.01
TGGTATCGA	0.983
TACTACAGAA	1.02
ATTTTGCCAG	0.965
TAGAGATGTG	0.95
CCCATCTTGA	1.02
AAGCTAACTC	1.3
CATTTGACTG	0.992
ATTACTCGAG	0.992
CGCCAGTAAG	1.04

Sequence	switch fluorescence ratio
ATGGTGTCAT	0.989
TGAGGCCTTT	0.984
GCTAGAATTT	1.07
CGGTAAACTT	1.04
CCTAAGAGTC	1.02
GGTGGGGACC	1.03
GGATCTGAGC	0.991
TCCATGGGGG	1.02
CGTATTGAGT	0.982
GGATCGATCT	0.972
CTCTTTAGGC	1.01
TATGGATGGA	1.03
CCCTGCCACC	1.61
TTCTGCGCAT	2.61
GGTACCAGTC	1.04
TAAGAGGCAT	1.02
ATCGCGCATT	1.15
CGAAGCTGTC	1.26
CCAGAAGTAT	1.02
CGAGGCCTCA	1.01
TTTGGCGA	0.89
TTGCCATATC	1.05
GCTGAGTGGA	1.05
CTTTTTGCAG	0.974
TCAACGGAAA	1.02
TAGGTAGGT	1.01

Sequence	switch fluorescence ratio
GTAATGAGAT	0.978
TATAGAGA	1.03
ATACGCACTG	1.77
ACATCCCAGT	1.06
GGGTGTTCCC	1
AAAAGTTAGG	0.967
GGTTTCATGT	0.972
GGCTGTCT	1
AGTTTTCG	1
CGGCCAGTAC	3.6
GGAGCATGTT	1.15
ATTGACGACG	1.05
GCTGAATTGT	1
CGAGCAGACC	2.52
TATATGGAGT	0.962
ATAAGTCAAG	0.978
GGTCGCTGAG	1.01
TGCCGATCAC	0.976
ATACTACACT	1.33
GTGTCGAGCT	0.977
AACGAATTAT	2.41
TAGCCATTCT	0.935
TCTCATTTGG	0.982
AGAAGTTAAA	1.03
GTAGTGCAT	1.02
TCCTGGTGTA	1.19

Sequence	switch fluorescence ratio
ACATGCCGTT	1.01
ACGGCTTCAC	1.02
GTTCTCGTGG	1.01
GGATATACCC	1.08
GCGCTGTTCA	1.07
CAGTGGGGAT	1.09
GGTTCAGAAA	0.991
ATATTACCAT	1.03
GCCAGTCGGG	0.993
ACGATGAGAT	1.05
TGTGCCAAAC	0.974
CGCGTAGTGC	1.17
AGCTAGGGGT	1.03
ACAAGAGCTG	1.06
TGTTGGGCAT	0.977
TAGTCGAGTG	0.978
CAGGATTGTA	1.02
GTAAGCTGC	0.98
TTAGTCGAGG	1.05
